The text below walks through data of US8471041B2 (priority 2010, dated 2013).

The text on this data set:
The ability of the aqueous extraction to effectively remove DNAZ HBr from the ABDNAZ reaction mixture was unexpected because DNAZ HBr was expected to have limited solubility in water. […] The appreciable solubility of DNAZ HBr in water was surprising since a significant portion of DNAZ HBr includes non-polar, carbon and hydrogen moieties, which, conventionally, are not soluble in water. […] Furthermore, DNAZ HBr was not expected to be sufficiently soluble in water to enable aqueous extraction.

On to `Br.CC(C)(C)N1CC([N+](=O)[O-])([N+](=O)[O-])C1` [DNAZ HBr], for which the “solubility in water relative to ABDNAZ (qualitative experiments)” value was “significantly more soluble in water than the ABDNAZ”.
